# The list shows a part of the results.
# B1: Arath Fbox LD (Arabidopsis thaliana) (protein)
# chain: EFSVWLEKASGKRCLMLSAMNLSIIWGDNPQYWQWIPIPESRFEKVAKLRDVCWFEIRGRTNTRVLSPRTRYSAYIVFKGVDKCYGFQNVAIEAAVGVVGQEPSRRLICFSEAIRRGRRNVVKPKQREDGWMEIELGEFFNDGGIMDNDEIEMSALETKQLNRKCGLIIQGIEIRPAKILAAASFLEQKLISEEDLNSAVDHHHHHH
# Experiments:
# Assay in all cases: glycan array binding signal (z-score within array); higher = stronger binding
# Conditions in all cases: glycan notation: IUPAC condensed, linker removed
# [1] = target: Gal(b1-4)GlcNAc(b1-3)Gal(b1-4)GlcNAc(b1-6)[Gal(b1-3)]GalNAc
# Summary of the method: (§1)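 From the Consortium for Functional Glycomics database, 3228 arrays were curated, keeping only those whose protein sequence was available. Binding is given as a within-array Z-score averaged across arrays sharing a protein sequence and across linkers. Negative Z-scores can be read as non-binding.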
# [2] = target: Gal(b1-4)GlcNAc(b1-3)Gal(b1-4)[Fuc(a1-3)]GlcNAc(b1-3)Gal(b1-4)[Fuc(a1-3)]GlcNAc
# Summary of the method: as §1
# [3] = target: Gal(b1-4)GlcNAc(b1-3)GalNAc
# Summary of the method: as §1
# [4] = target: Gal(b1-4)GlcNAc(b1-3)[Fuc(a1-3)GlcNAc(b1-6)]Gal(b1-4)Glc
# Summary of the method: as §1
# [5] = target: Gal(b1-4)GlcNAc(b1-3)[Gal(b1-4)GlcNAc(b1-6)]Gal(b1-4)GlcNAc
# Summary of the method: as §1
# [6] = target: Gal(b1-4)GlcNAc(b1-3)[GlcNAc(b1-6)]Gal(b1-4)GlcNAc
# Summary of the method: as §1
# [7] = target: Gal(b1-4)GlcNAc(b1-6)Gal(b1-4)GlcNAc
# Summary of the method: as §1
# [8] = target: Gal(b1-4)GlcNAc(b1-6)GalNAc
# Summary of the method: as §1
# [9] = target: Gal(b1-4)GlcNAc(b1-6)[Gal(b1-3)]GalNAc
# Summary of the method: as §1
# [10] = target: Gal(b1-4)GlcNAc(b1-6)[Gal(b1-4)GlcNAc(b1-3)]GalNAc
# Summary of the method: as §1
# Gal(b1-4)GlcNAc6P = target: Gal(b1-4)GlcNAc6P
# Summary of the method: as §1
# Gal(b1-6)Gal = target: Gal(b1-6)Gal
# Summary of the method: as §1
# Gal3S(b1-3)GalNAc = target: Gal3S(b1-3)GalNAc
# Summary of the method: as §1
# Gal3S(b1-3)GlcNAc = target: Gal3S(b1-3)GlcNAc
# Summary of the method: as §1
# [11] = target: Gal3S(b1-3)[Fuc(a1-4)]GlcNAc
# Summary of the method: as §1
# Gal3S(b1-4)Glc = target: Gal3S(b1-4)Glc
# Summary of the method: as §1
# Gal3S(b1-4)Glc6S = target: Gal3S(b1-4)Glc6S
# Summary of the method: as §1
# Gal3S(b1-4)GlcNAc = target: Gal3S(b1-4)GlcNAc
# Summary of the method: as §1
# [12] = target: Gal3S(b1-4)[Fuc(a1-3)]Glc6S
# Summary of the method: as §1
# [13] = target: Gal3S(b1-4)[Fuc(a1-3)]GlcNAc
# Summary of the method: as §1
# [14] = target: Gal3S(b1-4)[Fuc(a1-3)]GlcNAc6S
# Summary of the method: as §1
# Gal3S4S(b1-4)GlcNAc = target: Gal3S4S(b1-4)GlcNAc
# Summary of the method: as §1
# Gal3S6S(b1-4)GlcNAc = target: Gal3S6S(b1-4)GlcNAc
# Summary of the method: as §1
# Gal3S6S(b1-4)GlcNAc6S = target: Gal3S6S(b1-4)GlcNAc6S
# Summary of the method: as §1
# Gal4S(b1-4)GlcNAc = target: Gal4S(b1-4)GlcNAc
# Summary of the method: as §1
# Gal4S6S(b1-4)GlcNAc = target: Gal4S6S(b1-4)GlcNAc
# Summary of the method: as §1
# Gal6P(b1-4)GlcNAc = target: Gal6P(b1-4)GlcNAc
# Summary of the method: as §1
# Gal6S(b1-3)GlcNAc = target: Gal6S(b1-3)GlcNAc
# Summary of the method: as §1
# Gal6S(b1-3)GlcNAc6S = target: Gal6S(b1-3)GlcNAc6S
# Summary of the method: as §1
# Gal6S(b1-4)Glc = target: Gal6S(b1-4)Glc
# Summary of the method: as §1
# Gal6S(b1-4)Glc6S = target: Gal6S(b1-4)Glc6S
# Summary of the method: as §1
# Gal6S(b1-4)GlcNAc = target: Gal6S(b1-4)GlcNAc
# Summary of the method: as §1
# Gal6S(b1-4)GlcNAc6S = target: Gal6S(b1-4)GlcNAc6S
# Summary of the method: as §1
# GalNAc(a1-3)Gal = target: GalNAc(a1-3)Gal
# Summary of the method: as §1
# GalNAc(a1-3)GalNAc = target: GalNAc(a1-3)GalNAc
# Summary of the method: as §1
# [15] = target: GalNAc(a1-3)GalNAc(b1-3)Gal(a1-4)Gal(b1-4)Glc
# Summary of the method: as §1
# [16] = target: GalNAc(a1-3)GalNAc(b1-3)Gal(a1-4)Gal(b1-4)GlcNAc
# Summary of the method: as §1
# GalNAc(b1-3)Gal = target: GalNAc(b1-3)Gal
# Summary of the method: as §1
# [17] = target: GalNAc(b1-3)Gal(a1-4)Gal(b1-4)GlcNAc
# Summary of the method: as §1
# [18] = target: GalNAc(b1-3)Gal(a1-4)Gal(b1-4)GlcNAc(b1-3)Gal(b1-4)Glc
# Summary of the method: as §1
# [19] = target: GalNAc(b1-3)Gal(a1-6)Gal(b1-4)Glc
# Summary of the method: as §1
# GalNAc(b1-3)GalNAc = target: GalNAc(b1-3)GalNAc
# Summary of the method: as §1
# GalNAc(b1-3)GlcNAc = target: GalNAc(b1-3)GlcNAc
# Summary of the method: as §1
# GalNAc(b1-4)Gal(b1-4)Glc = target: GalNAc(b1-4)Gal(b1-4)Glc
# Summary of the method: as §1
# GalNAc(b1-4)GlcNAc = target: GalNAc(b1-4)GlcNAc
# Summary of the method: as §1
binder,measurement,setting,value
B1,glycan array binding signal (z-score),[1],-0.232
same,glycan array binding signal (z-score),[2],-0.413
same,glycan array binding signal (z-score),[3],-0.442
same,glycan array binding signal (z-score),[4],-0.596
same,glycan array binding signal (z-score),[5],-0.346
same,glycan array binding signal (z-score),[6],-0.548
same,glycan array binding signal (z-score),[7],-0.326
same,glycan array binding signal (z-score),[8],0.625
same,glycan array binding signal (z-score),[9],-0.495
same,glycan array binding signal (z-score),[10],-0.018
same,glycan array binding signal (z-score),Gal(b1-4)GlcNAc6P,-0.55
same,glycan array binding signal (z-score),Gal(b1-6)Gal,0.384
same,glycan array binding signal (z-score),Gal3S(b1-3)GalNAc,2.23
same,glycan array binding signal (z-score),Gal3S(b1-3)GlcNAc,0.381
same,glycan array binding signal (z-score),[11],-0.069
same,glycan array binding signal (z-score),Gal3S(b1-4)Glc,4.4
same,glycan array binding signal (z-score),Gal3S(b1-4)Glc6S,2.1
same,glycan array binding signal (z-score),Gal3S(b1-4)GlcNAc,1.3
same,glycan array binding signal (z-score),[12],1.65
same,glycan array binding signal (z-score),[13],-0.17
same,glycan array binding signal (z-score),[14],3.79
same,glycan array binding signal (z-score),Gal3S4S(b1-4)GlcNAc,0.379
same,glycan array binding signal (z-score),Gal3S6S(b1-4)GlcNAc,2.51
same,glycan array binding signal (z-score),Gal3S6S(b1-4)GlcNAc6S,1.53
same,glycan array binding signal (z-score),Gal4S(b1-4)GlcNAc,0.356
same,glycan array binding signal (z-score),Gal4S6S(b1-4)GlcNAc,-0.39
same,glycan array binding signal (z-score),Gal6P(b1-4)GlcNAc,-0.578
same,glycan array binding signal (z-score),Gal6S(b1-3)GlcNAc,0.319
same,glycan array binding signal (z-score),Gal6S(b1-3)GlcNAc6S,-0.456
same,glycan array binding signal (z-score),Gal6S(b1-4)Glc,0.172
same,glycan array binding signal (z-score),Gal6S(b1-4)Glc6S,1.23
same,glycan array binding signal (z-score),Gal6S(b1-4)GlcNAc,0.271
same,glycan array binding signal (z-score),Gal6S(b1-4)GlcNAc6S,0.739
same,glycan array binding signal (z-score),GalNAc(a1-3)Gal,0.687
same,glycan array binding signal (z-score),GalNAc(a1-3)GalNAc,1.9
same,glycan array binding signal (z-score),[15],-0.242
same,glycan array binding signal (z-score),[16],-0.368
same,glycan array binding signal (z-score),GalNAc(b1-3)Gal,0.377
same,glycan array binding signal (z-score),[17],-0.408
same,glycan array binding signal (z-score),[18],-0.637
same,glycan array binding signal (z-score),[19],-0.549
same,glycan array binding signal (z-score),GalNAc(b1-3)GalNAc,0.547
same,glycan array binding signal (z-score),GalNAc(b1-3)GlcNAc,-0.567
same,glycan array binding signal (z-score),GalNAc(b1-4)Gal(b1-4)Glc,0.019
same,glycan array binding signal (z-score),GalNAc(b1-4)GlcNAc,-0.572

# — the supplement of paper PMC8728848
